Data from US20060199864A1, “Selection of pH-dependent compounds for in vivo therapy” (priority 2004, published 2006).

Biological target: NR1/NR2B (Rattus norvegicus, UniProt P35439+Q00960)
Conditions: for criteria for selection as an effective compound for therapeutic use (potency boost at least 5 and at least 30% decrease in infarct volume): as indicated in FIG. 1; for mean within the shaded area (criteria for improved drug performance) for NR1/NR2B: FIG. 1

**Q.** Which “criteria for selection as an effective compound for therapeutic use (potency boost at least 5 and at least 30% decrease in infarct volume)” value does the source give for `CC(C)CN(CCc1ccc(Cl)c(Cl)c1)C[C@H](O)COc1ccc(NS(C)(=O)=O)cc1` [Compound 93-97] here?
**A.** Its value is “does not fall within the criteria for selection”.

**Q.** Which “criteria for selection as an effective compound for therapeutic use (potency boost at least 5 and at least 30% decrease in infarct volume)” value does the source give for `CS(=O)(=O)Nc1ccc(OC[C@H](O)CN(CCc2ccc(Cl)c(Cl)c2)Cc2ccccc2O)cc1` [Compound 93-40] here?
**A.** The value was “do not fall within the criteria for selection”.

**Q.** What does the source list for `CS(=O)(=O)Nc1ccc(OC[C@@H](O)CNCCc2ccc(Cl)c(Cl)c2)cc1` [Compound 93-4]?
**A.** mean within the shaded area (criteria for improved drug performance) for NR1/NR2B: fall within the shaded area; criteria for selection as an effective compound for therapeutic use (potency boost at least 5 and at least 30% decrease in infarct volume): falls within the criteria for selection

**Q.** How did the “mean within the shaded area (criteria for improved drug performance) for NR1/NR2B” value (shortened to “mean within the shaded area”) turn out when `CCCCN(CCc1ccc(Cl)c(Cl)c1)C[C@H](O)COc1ccc(NS(C)(=O)=O)cc1` [Compound 93-31] was run?
**A.** The value was “fall within the shaded area”.

**Q.** What about the “criteria for selection as an effective compound for therapeutic use (potency boost at least 5 and at least 30% decrease in infarct volume)” value of the same molecule?
**A.** The value was “falls within the criteria for selection”.

**Q.** How did the “criteria for selection as an effective compound for therapeutic use (potency boost at least 5 and at least 30% decrease in infarct volume)” value turn out when `CS(=O)(=O)Nc1ccc(OC[C@@H](O)CN(CCO)CCc2ccc(Cl)c(Cl)c2)cc1` [Compound 93-8] was run?
**A.** The value was “falls within the criteria for selection”.

**Q.** For `CS(=O)(=O)Nc1ccc(OCC(O)CN(CCc2ccc(Cl)c(Cl)c2)Cc2cccc(O)c2)cc1` (stereo not shown) [Compound 93-41], which “mean within the shaded area” value is on record?
**A.** The value was “fall within the shaded area”.

**Q.** And the “criteria for selection as an effective compound for therapeutic use (potency boost at least 5 and at least 30% decrease in infarct volume)” value?
**A.** Its value is “falls within the criteria for selection”.

**Q.** `CS(=O)(=O)Nc1ccc(OC[C@@H](O)CN(CCc2ccc(Cl)c(Cl)c2)Cc2ccccc2O)cc1` [Compound 93-43] was tested. Which “criteria for selection as an effective compound for therapeutic use (potency boost at least 5 and at least 30% decrease in infarct volume)” value did it give?
**A.** The value was “do not fall within the criteria for selection”.

**Q.** For `C[C@@]12N[C@@H](Cc3ccccc31)c1ccccc12` [(−)MK801, reference compound], which “criteria for selection as an effective compound for therapeutic use (potency boost at least 5 and at least 30% decrease in infarct volume)” value is on record?
**A.** Its value is “falls within the criteria for selection”.

**Q.** For `CCN(CCc1ccc(Cl)c(Cl)c1)C[C@H](O)COc1ccc(NS(C)(=O)=O)cc1` [Compound 93-5], which “mean within the shaded area” value is on record?
**A.** Its value is “fall within the shaded area”.

**Q.** What about the “criteria for selection as an effective compound for therapeutic use (potency boost at least 5 and at least 30% decrease in infarct volume)” value of the same molecule?
**A.** Its value is “falls within the criteria for selection”.
